From paper PMC4150796
Results are given in words; binding and its absence hold for the method and conditions named. Binding seen in cells or lysates may run through a third protein. Some binding calls cover weakened binding; strength is not graded here. For part of these data: Sequences can lack the tags named with a protein.

Legend:
[1] = target: T1, endogenous EBNA3A of a lymphoblastoid cell line (Epstein–Barr virus (endogenous in EBV-infected human LCL)) (UniProt P12977); assay: co-IP; endogenous proteins from a lymphoblastoid cell line extract; IP with anti-EBNA3A or anti-MIZ-1 polyclonal antibodies, anti-Flag antibody as control; western blot
T1 sequence: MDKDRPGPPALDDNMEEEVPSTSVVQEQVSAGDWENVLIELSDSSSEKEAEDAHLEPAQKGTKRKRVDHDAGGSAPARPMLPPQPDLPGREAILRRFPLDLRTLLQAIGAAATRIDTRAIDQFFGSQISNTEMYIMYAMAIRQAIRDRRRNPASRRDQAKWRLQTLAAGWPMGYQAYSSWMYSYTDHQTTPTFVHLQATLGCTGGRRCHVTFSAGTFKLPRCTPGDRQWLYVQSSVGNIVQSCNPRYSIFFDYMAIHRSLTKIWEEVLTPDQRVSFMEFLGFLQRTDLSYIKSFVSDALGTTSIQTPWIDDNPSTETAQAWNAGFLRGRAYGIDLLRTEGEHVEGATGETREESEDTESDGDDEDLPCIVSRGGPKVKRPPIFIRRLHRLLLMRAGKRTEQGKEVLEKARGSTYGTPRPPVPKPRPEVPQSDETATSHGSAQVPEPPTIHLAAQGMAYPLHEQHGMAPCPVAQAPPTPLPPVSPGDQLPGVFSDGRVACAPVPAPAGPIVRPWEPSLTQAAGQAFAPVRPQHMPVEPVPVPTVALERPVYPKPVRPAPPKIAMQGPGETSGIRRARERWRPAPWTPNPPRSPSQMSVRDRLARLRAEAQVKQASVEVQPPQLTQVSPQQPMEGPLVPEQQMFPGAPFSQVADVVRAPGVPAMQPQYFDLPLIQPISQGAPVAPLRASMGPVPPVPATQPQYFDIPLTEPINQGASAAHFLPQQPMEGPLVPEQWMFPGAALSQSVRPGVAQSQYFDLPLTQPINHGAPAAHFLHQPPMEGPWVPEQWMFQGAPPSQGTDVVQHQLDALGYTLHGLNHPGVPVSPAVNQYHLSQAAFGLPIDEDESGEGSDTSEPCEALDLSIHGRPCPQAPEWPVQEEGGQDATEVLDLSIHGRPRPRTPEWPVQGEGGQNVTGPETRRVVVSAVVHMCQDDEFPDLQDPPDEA

[2] = target: T2, endogenous MIZ-1 of lymphoblastoid cell lines (human (endogenous in LCL)) (UniProt Q13105); assay: as above
T2 sequence: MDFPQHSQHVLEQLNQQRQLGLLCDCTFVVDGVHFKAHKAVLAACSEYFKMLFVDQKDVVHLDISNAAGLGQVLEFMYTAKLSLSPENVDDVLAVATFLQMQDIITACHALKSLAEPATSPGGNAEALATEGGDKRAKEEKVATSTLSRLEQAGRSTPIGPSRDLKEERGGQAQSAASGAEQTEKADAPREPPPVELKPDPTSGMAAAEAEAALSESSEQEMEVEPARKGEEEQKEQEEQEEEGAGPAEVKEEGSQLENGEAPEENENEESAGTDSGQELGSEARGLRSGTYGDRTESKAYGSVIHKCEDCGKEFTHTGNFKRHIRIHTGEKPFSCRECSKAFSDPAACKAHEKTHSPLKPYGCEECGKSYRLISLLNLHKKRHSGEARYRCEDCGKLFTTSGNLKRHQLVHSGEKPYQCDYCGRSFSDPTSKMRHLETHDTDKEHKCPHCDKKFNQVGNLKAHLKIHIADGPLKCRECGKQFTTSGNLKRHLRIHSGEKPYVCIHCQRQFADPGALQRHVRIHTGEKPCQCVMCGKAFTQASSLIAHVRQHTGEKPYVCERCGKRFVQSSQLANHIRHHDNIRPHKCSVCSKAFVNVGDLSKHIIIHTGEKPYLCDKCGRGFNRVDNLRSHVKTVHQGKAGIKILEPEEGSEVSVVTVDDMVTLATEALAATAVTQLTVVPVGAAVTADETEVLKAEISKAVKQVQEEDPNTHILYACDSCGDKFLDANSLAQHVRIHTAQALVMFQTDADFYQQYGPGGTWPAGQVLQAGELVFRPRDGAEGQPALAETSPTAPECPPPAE

[3] = target: T2, endogenous MIZ-1 of lymphoblastoid cell lines (human (endogenous in LCL)); assay: oligonucleotide pull-down; whole LCLwt extract with biotinylated double-stranded oligonucleotide carrying the Inr of the CDKN2B promoter (or a mutated control), streptavidin-agarose beads; HKMG buffer, 16 h at 4°C; western blot
[4] = target: T3, Flag-MIZ-1 (full-length) (human) (UniProt Q13105); assay: co-IP
T3 sequence: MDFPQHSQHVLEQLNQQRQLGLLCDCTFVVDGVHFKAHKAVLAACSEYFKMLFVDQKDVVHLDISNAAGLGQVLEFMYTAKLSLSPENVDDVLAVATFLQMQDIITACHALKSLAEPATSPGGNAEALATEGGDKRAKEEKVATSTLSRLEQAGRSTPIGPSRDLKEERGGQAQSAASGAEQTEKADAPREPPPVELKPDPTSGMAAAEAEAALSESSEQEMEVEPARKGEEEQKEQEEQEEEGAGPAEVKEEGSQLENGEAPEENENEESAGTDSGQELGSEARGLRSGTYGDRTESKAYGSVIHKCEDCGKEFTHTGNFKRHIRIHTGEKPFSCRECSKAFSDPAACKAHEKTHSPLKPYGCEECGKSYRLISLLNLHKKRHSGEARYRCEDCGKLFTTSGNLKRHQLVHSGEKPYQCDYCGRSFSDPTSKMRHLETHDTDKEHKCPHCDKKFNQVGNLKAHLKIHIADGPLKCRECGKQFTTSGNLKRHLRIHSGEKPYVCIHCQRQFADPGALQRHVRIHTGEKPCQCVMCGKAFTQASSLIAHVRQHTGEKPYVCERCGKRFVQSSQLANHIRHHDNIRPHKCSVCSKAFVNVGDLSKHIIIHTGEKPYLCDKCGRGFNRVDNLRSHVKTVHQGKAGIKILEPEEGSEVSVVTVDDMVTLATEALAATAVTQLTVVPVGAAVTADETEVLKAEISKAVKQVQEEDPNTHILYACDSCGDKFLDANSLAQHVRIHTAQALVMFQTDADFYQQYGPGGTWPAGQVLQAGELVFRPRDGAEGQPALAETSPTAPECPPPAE

[5] = target: Flag-MIZ-1 POZ domain (aa 1–104) (human) (UniProt Q13105); assay: co-IP
[6] = target: Flag-MIZ-1 with the domain between aa 638 and 716 deleted (human) (UniProt Q13105); assay: co-IP

B1: endogenous MIZ-1 of lymphoblastoid cell lines (protein, UniProt Q13105 1-803)
chain: MDFPQHSQHVLEQLNQQRQLGLLCDCTFVVDGVHFKAHKAVLAACSEYFKMLFVDQKDVVHLDISNAAGLGQVLEFMYTAKLSLSPENVDDVLAVATFLQMQDIITACHALKSLAEPATSPGGNAEALATEGGDKRAKEEKVATSTLSRLEQAGRSTPIGPSRDLKEERGGQAQSAASGAEQTEKADAPREPPPVELKPDPTSGMAAAEAEAALSESSEQEMEVEPARKGEEEQKEQEEQEEEGAGPAEVKEEGSQLENGEAPEENENEESAGTDSGQELGSEARGLRSGTYGDRTESKAYGSVIHKCEDCGKEFTHTGNFKRHIRIHTGEKPFSCRECSKAFSDPAACKAHEKTHSPLKPYGCEECGKSYRLISLLNLHKKRHSGEARYRCEDCGKLFTTSGNLKRHQLVHSGEKPYQCDYCGRSFSDPTSKMRHLETHDTDKEHKCPHCDKKFNQVGNLKAHLKIHIADGPLKCRECGKQFTTSGNLKRHLRIHSGEKPYVCIHCQRQFADPGALQRHVRIHTGEKPCQCVMCGKAFTQASSLIAHVRQHTGEKPYVCERCGKRFVQSSQLANHIRHHDNIRPHKCSVCSKAFVNVGDLSKHIIIHTGEKPYLCDKCGRGFNRVDNLRSHVKTVHQGKAGIKILEPEEGSEVSVVTVDDMVTLATEALAATAVTQLTVVPVGAAVTADETEVLKAEISKAVKQVQEEDPNTHILYACDSCGDKFLDANSLAQHVRIHTAQALVMFQTDADFYQQYGPGGTWPAGQVLQAGELVFRPRDGAEGQPALAETSPTAPECPPPAE
**Q.** How did the binding [1] turn out when B1 was run?
**A.** Its binding is “binds”.

B2: endogenous EBNA3A of a lymphoblastoid cell line (protein, UniProt P12977 1-944)
chain: MDKDRPGPPALDDNMEEEVPSTSVVQEQVSAGDWENVLIELSDSSSEKEAEDAHLEPAQKGTKRKRVDHDAGGSAPARPMLPPQPDLPGREAILRRFPLDLRTLLQAIGAAATRIDTRAIDQFFGSQISNTEMYIMYAMAIRQAIRDRRRNPASRRDQAKWRLQTLAAGWPMGYQAYSSWMYSYTDHQTTPTFVHLQATLGCTGGRRCHVTFSAGTFKLPRCTPGDRQWLYVQSSVGNIVQSCNPRYSIFFDYMAIHRSLTKIWEEVLTPDQRVSFMEFLGFLQRTDLSYIKSFVSDALGTTSIQTPWIDDNPSTETAQAWNAGFLRGRAYGIDLLRTEGEHVEGATGETREESEDTESDGDDEDLPCIVSRGGPKVKRPPIFIRRLHRLLLMRAGKRTEQGKEVLEKARGSTYGTPRPPVPKPRPEVPQSDETATSHGSAQVPEPPTIHLAAQGMAYPLHEQHGMAPCPVAQAPPTPLPPVSPGDQLPGVFSDGRVACAPVPAPAGPIVRPWEPSLTQAAGQAFAPVRPQHMPVEPVPVPTVALERPVYPKPVRPAPPKIAMQGPGETSGIRRARERWRPAPWTPNPPRSPSQMSVRDRLARLRAEAQVKQASVEVQPPQLTQVSPQQPMEGPLVPEQQMFPGAPFSQVADVVRAPGVPAMQPQYFDLPLIQPISQGAPVAPLRASMGPVPPVPATQPQYFDIPLTEPINQGASAAHFLPQQPMEGPLVPEQWMFPGAALSQSVRPGVAQSQYFDLPLTQPINHGAPAAHFLHQPPMEGPWVPEQWMFQGAPPSQGTDVVQHQLDALGYTLHGLNHPGVPVSPAVNQYHLSQAAFGLPIDEDESGEGSDTSEPCEALDLSIHGRPCPQAPEWPVQEEGGQDATEVLDLSIHGRPRPRTPEWPVQGEGGQNVTGPETRRVVVSAVVHMCQDDEFPDLQDPPDEA
**Q.** With B2 as the binder, how does the binding [2] read?
**A.** The binding was “binds”.

**Q.** And the binding [3]?
**A.** Its binding is “binds”.

B3: Myc-EBNA3A (protein, UniProt P12977 1-944)
chain: MDKDRPGPPALDDNMEEEVPSTSVVQEQVSAGDWENVLIELSDSSSEKEAEDAHLEPAQKGTKRKRVDHDAGGSAPARPMLPPQPDLPGREAILRRFPLDLRTLLQAIGAAATRIDTRAIDQFFGSQISNTEMYIMYAMAIRQAIRDRRRNPASRRDQAKWRLQTLAAGWPMGYQAYSSWMYSYTDHQTTPTFVHLQATLGCTGGRRCHVTFSAGTFKLPRCTPGDRQWLYVQSSVGNIVQSCNPRYSIFFDYMAIHRSLTKIWEEVLTPDQRVSFMEFLGFLQRTDLSYIKSFVSDALGTTSIQTPWIDDNPSTETAQAWNAGFLRGRAYGIDLLRTEGEHVEGATGETREESEDTESDGDDEDLPCIVSRGGPKVKRPPIFIRRLHRLLLMRAGKRTEQGKEVLEKARGSTYGTPRPPVPKPRPEVPQSDETATSHGSAQVPEPPTIHLAAQGMAYPLHEQHGMAPCPVAQAPPTPLPPVSPGDQLPGVFSDGRVACAPVPAPAGPIVRPWEPSLTQAAGQAFAPVRPQHMPVEPVPVPTVALERPVYPKPVRPAPPKIAMQGPGETSGIRRARERWRPAPWTPNPPRSPSQMSVRDRLARLRAEAQVKQASVEVQPPQLTQVSPQQPMEGPLVPEQQMFPGAPFSQVADVVRAPGVPAMQPQYFDLPLIQPISQGAPVAPLRASMGPVPPVPATQPQYFDIPLTEPINQGASAAHFLPQQPMEGPLVPEQWMFPGAALSQSVRPGVAQSQYFDLPLTQPINHGAPAAHFLHQPPMEGPWVPEQWMFQGAPPSQGTDVVQHQLDALGYTLHGLNHPGVPVSPAVNQYHLSQAAFGLPIDEDESGEGSDTSEPCEALDLSIHGRPCPQAPEWPVQEEGGQDATEVLDLSIHGRPRPRTPEWPVQGEGGQNVTGPETRRVVVSAVVHMCQDDEFPDLQDPPDEA
**Q.** B3 was tested. Which binding [4] did it give?
**A.** The binding was “binds”.

**Q.** What about the binding [5] of the same binder?
**A.** Its binding is “binds”.

**Q.** What about the binding [6] of the same binder?
**A.** The binding was “binds”.
